This note sets out measurements from the supplement of paper PMC11417369.

± gives the standard deviation of the averaged measurements. Some of the results follow.

The subject of this assay is PfAP2-EXP AP2 domain (GST-tagged). Briefly: gcPBM binding intensity (ln(normalized median fluorescence intensity)); higher = stronger DNA binding. The gist of the method:
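Each value is the highest Masliner-normalised natural-log median intensity across replicate spots of either orientation of a probe. The probes were primer-extended double-stranded 36-bp intergenic genomic sequences on an Agilent 4 × 180k array, alongside negative controls, exposed for 1 h to GST-tagged P. falciparum DNA-binding domains expressed in E. coli. Bound protein was picked up with Alexa488 anti-GST antibody and scanned at 488 nm.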
“ATATATCTACAAATATGTACACACACACATATATAT [XGTACX_site1075]”: the “gcPBM binding intensity (ln)” value was found to be 8.77 ± 0.38.
For “AATAAAAAATATAACACAAATATGTATATATATATA [TGCATGCA_negctrl_site245]”, the “gcPBM binding intensity (ln)” value came to 9.81 ± 0.34.
The figure for “ACATATAAAATGTATACACACAAATATTACATATAT [CACACA_site1472]” is 8.42 ± 0.31.
Regarding “CAAAAAAAAAAAAAAAATAAATAAAGGAAATAAAAA [CACACA_negctrl_site20]”, the “gcPBM binding intensity (ln)” value was 8.4 ± 0.64.
The figure for “AACCAATTATATTTACGTACGTACGGTTTTTTATAT [XGTACX_site1291]” is 9.03 ± 0.47; for “TTCTCAAAGAAGAAAAAGTTTTTTTAATTTTTCTTT [XGTACX_negctrl_site543]” it is 8.05 ± 0.45.
As to “ATATATTAATATACTCGTACATATTCTTATTGTGTA [XGTACX_site3728]”, the “gcPBM binding intensity (ln)” value was 8.54 ± 0.39.
Under “AATATATTTTTTTTTTGTACATATTGTAAAATAATA [XGTACX_site6805]” stands 8.42 ± 0.44; under “GTGTAGTTAAAAAAAAGTACAGATTTTTTTTTTTTT [XGTACX_site849]”, 8.43 ± 0.092.
In the case of “ATAAGAACGTCTATGTGTACGCAGCAAAACTGAGTT [XGTACX_site6385]”, the “gcPBM binding intensity (ln)” value was 8.44 ± 0.24.
The figure for “ATAGAATATTGATATTGTACGTTATCTTAAAACAAT [XGTACX_site1702]” is 8.54 ± 0.33; for “AAAAAAAAAAAAACAAGTACAAAGGATAGAAAAAAA [XGTACX_site4133]” it is 8.77 ± 0.38; for “CACATTTAGAAATAGTTTTATTTTGTATATTCTATT [CACACA_negctrl_site1382]” it is 8.24 ± 0.5.
Under “GTATGTGTATGTGTATGTACATATGTATGTATAAAA [XGTACX_site8191]” stands 9.07 ± 0.099; under “TTTTGTATATATCACATTAAAAGAAAAAAATATATG [GTGCAC_negctrl_site120]”, 8.33 ± 0.33.
Turning to “TATACATTTATGTACACACACATATCTGTATATTTA [CACACA_site5617]”, the “gcPBM binding intensity (ln)” value is 8.35 ± 0.31.
The figure for “TATATATATTTCCAGTGTACTTATTTTTTAATCAAT [XGTACX_site8220]” is 8.74 ± 0.27; for “TCCTCAAAAAAATAAAATAATTTATACTTTTTTAAA [GTGCAC_negctrl_site724]” it is 7.78 ± 0.5; for “TTTTTTAAATATTAAAAATGGGATCTTATAACATAT [GTGCAC_negctrl_site666]” it is 8.21 ± 0.32.
The figure for “TGTATAAACCCACGTACACACACTAAGTATATCCAA [CACACA_site1605]” is 8.91 ± 0.41; for TAAAATATATTGCCAGTGCATAATATATGTAATTAT it is 8.51 ± 0.11.
Consider “TTATTTTTAACGTACGCACACATATAAATATATTTA [CACACA_site1976]”, for which the “gcPBM binding intensity (ln)” value was determined as 8.82 ± 0.29.
The figure for “TAAACAAATAAATAAACACACAATATAGGTATATAT [CACACA_site7739]” is 8.55 ± 0.47; for “AACTAATAAAAAAAAAAAACATTAAACAGGACAAAT [XGTACX_negctrl_site287]” it is 8.7 ± 0.59.
Regarding “TTGTTTTTAGTTTATACACACCATATTAAAATAATG [CACACA_site5675]”, the “gcPBM binding intensity (ln)” value worked out at 8.66 ± 0.44.
The figure for “AATAAAATATACTATTGTACATATGGAACTACTTGA [XGTACX_site8928]” is 8.52 ± 0.36; for “ATTTATTATATATAGTGTACGTTCTTAATTATAATT [XGTACX_site7480]” it is 8.71 ± 0.28; for “TTGTATTACATAAATGTTCTTTATTATTTGATAAAA [CACACA_negctrl_site903]” it is 8.36 ± 0.33.
Under “TATATAATATATTAATGTACTTAAAATATATTCTAT [XGTACX_site1235]” stands 8.12 ± 0.33; under “TTTTTAGGAAAGGCGGCACACATTTATATATTTATT [CACACA_site3672]”, 8.29 ± 0.47; under “ATAAAATAAATATAACCACACACGAAAGAGAGAGAA [CACACA_site9075]”, 9.07 ± 0.52.
“TTCCAACCAATACAAACATGCATTTGAAAAAATGTA [TGCATGCA_site119]”: the “gcPBM binding intensity (ln)” value was 8.55 ± 0.43.
Under TTCGCCCTAAATAGAGTGCATTATATATATTAATAT stands 8.95 ± 0.2; under “CAAAATATATTGAATTGTACATAAAAATAAAAATTA [XGTACX_site4193]”, 8.83 ± 0.71.
Under “TTTATTTTATCATTTGCACACGCACGCCCACATAAA [CACACA_site353]” stands 9 ± 0.23.
With “AGCAGTCAGCAGGACAGTACACAGTAGCCAGTAACT [XGTACX_site1999]”, the “gcPBM binding intensity (ln)” value stood at 8.36 ± 0.47.
Under “ATTTTTTTGGAATTCACACACAAAAAAAAAAATAAA [CACACA_site2081]” stands 8.63 ± 0.49; under “AATTAGACATAATATACACACATATATTATATATAT [CACACA_site2691]”, 8.615 ± 0.064; under TTCAAAAGATATATCGTGCACATATATATGATGAAA, 9.35 ± 0.62.
As for “ATTATTTTATTTATTGGTACGTAATTGTAGATTTCT [XGTACX_site3697]”, the “gcPBM binding intensity (ln)” value was 8.64 ± 0.4.
Under “ATACATTCTTATTACTGTACAGGGTTAATTATTTGT [XGTACX_site948]” stands 8.9 ± 0.32; under “TGGAGATAAAATAAAACACACACATATATATATATA [CACACA_site8683]”, 10 ± 0.39; under “GCAAAAACAAACGTCACACATACAAAGGCCGTGTAA [CACACA_site6043]”, 8.42 ± 0.49.
The figure for “TAGGTATATAAATAATGTACATATAAACTATATAGA [XGTACX_site2597]” is 8.79 ± 0.5; for “TCCACACAATTTATAACATGCAAAAAGGCAATAATA [TGCATGCA_site773]” it is 8.69 ± 0.42.
For the sequence “ATGTTGAGTATATATACACACATACAGATATATATA [CACACA_site4967]”, the “gcPBM binding intensity (ln)” value stood at 8.62 ± 0.32.
“TATAAGCTAAGTTGTTGTACAAAAAGGAAAAGTATA [XGTACX_site3741]”: the “gcPBM binding intensity (ln)” value was 9.03 ± 0.59.
The figure for “GAGATAAAATAAAACACACACATATATATATAGAAT [CACACA_site2197]” is 8.69 ± 0.4.
With “AAAAAAATCTCCAGTGTGCACAATCACATAATATAT [GTGCAC_site9833]”, the “gcPBM binding intensity (ln)” value came out at 8.96 ± 0.26.
The figure for “TGTTACATAAAATGCACACTTTCAAATATGCTAATA [CACACA_site2925]” is 8.31 ± 0.28; for “AAATATAAATATACTCGTACATATATATATATATAT [XGTACX_site6940]” it is 10.1 ± 0.41; for “AATATATGGTTTCATGATATTAAATTCAATTTAATG [GTGCAC_negctrl_site370]” it is 8.16 ± 0.47.
Regarding “TATACGTATTTTATATGTACACATATACATATTTAT [XGTACX_site5301]”, the “gcPBM binding intensity (ln)” value came to 8.64 ± 0.33.
In the case of “TTTTCTTTTAAGTTTGTTTTACACTTTTTATTTTGA [CACACA_negctrl_site1581]”, the “gcPBM binding intensity (ln)” value amounted to 8.56 ± 0.56.
On to “ACTATATTTCATAACAGTACATATTCCTGAAACATC [XGTACX_site4924]”, for which the “gcPBM binding intensity (ln)” value turned out to be 8.69 ± 0.4.
For “CATGCTTATATGTGCACACACAAAAGAAAAGAAAAA [CACACA_site1655]”, the “gcPBM binding intensity (ln)” value came out at 8.925 ± 0.064.
With “ACAATATAAAAAAATTGTACATAATATATAATATTA [XGTACX_site1040]”, the “gcPBM binding intensity (ln)” value was 8.3 ± 0.38.
